The campaign covered roughly 46,000 compounds. About 60 (0.1%) were called active. About 3% were inconclusive and are not listed. The call rests on the fitted dose curve; in most records, active means well fitted inhibition curve with a large enough effect; inconclusive means small, poorly fitted or top-dose-only effect; inactive means no such curve, though single readings can be large or run the other way. Some of the results follow.
Test: Primary qHTS assay for Inhibitors of ovarian cancer metastasis using an organotypic tumor microenvironment (TME) model. Further: nearly all actives have a fitted effect of over 65% in size.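 On activity change, negative = inhibition: plate controls were DMSO wells for no effect and tomatine positive control wells for full effect.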
Conditions: SKOV3ip1-GFP adhesion/invasion on 3D omental model, fluorescence; series mostly up to 45.8 µM; activity change, negative = inhibition: at the top concentration
Outline: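 Primary human omental fibroblast/mesothelial 3D culture pre-formed 48 h. SKOV3ip1-GFP cells added with compounds (0.36-46 umol/L), incubated 2 h RT/16 h 37 C, fixed; GFP cells quantified at 488/509 nm.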

Activity change, negative = inhibition, inactive:
COc1cc(NC(=O)CSc2nc(-c3ccc(C)cc3)nc3c2Cc2ccccc2O3)cc(OC)c1 -22.5%
N#Cc1ccc(CSc2nc3c(c(=O)[nH]2)CCC3)cc1 5.57%
CC(C)(O)c1cc2nc(-c3cnc(N)nc3)nc(N3CCOCC3)c2s1 0.566%
O=C(CC1C(=O)OCCN1Cc1ccccc1)Nc1ccc(F)cc1 (stereo not given) 1.54%
Cc1c(Cn2c(C)nc3c(C(=O)O)cc(N4CCOCC4)cc32)cccc1C(F)(F)F 15.8%
CC(=O)c1ccc(NC(=O)CSc2cn(CC(=O)N3CCCCCC3)c3ccccc23)cc1 -15.6%
CS(=O)c1ccc(-c2nc(-c3ccc(F)cc3)c(-c3ccncc3)[nH]2)cc1 (stereo not given) 29.5% [at 92.2 µM]
CC(C)Cn1c(=O)c2sccc2n2c(CCCC(=O)NCc3ccccc3Cl)nnc12 -2.51%
CCc1ccc2oc(-c3cc(NC(=O)C(C)C)cc(C)c3O)nc2c1 21.7%
COc1ccc(NC(=O)CSc2oc(-c3ccco3)nc2S(=O)(=O)c2ccc(Br)cc2)c(OC)c1 1.51%
CCOC(=O)N1CCC(NC(=O)c2cnn(-c3cccc(Cl)c3C)c2C2CCN(C(=O)OC(C)(C)C)CC2)CC1 -18.2%
O=C(Cn1cc(SCc2ccc(C(F)(F)F)cc2)c2ccccc21)N1CCCC1 -33.4%
CCCOc1ccc(-c2nonc2NC(=O)c2oc3ccc(C)cc3c2C)cc1OCCC 7.31%
COc1cccc(CNC(=O)C2CCN(S(=O)(=O)c3cn(C)cn3)CC2)c1 36.1%
COc1ccc(OC)c(NC(=O)c2cc(CN3CCCC3)on2)c1 9.32%
COc1cccc(CN2CCc3nc(N4CCN(c5ncccn5)CC4)ncc3C2)c1 2.5%
CCc1sc(Nc2cccc(Cl)c2C)nc1-c1cc2cccc(OC)c2oc1=O -3.03%
CN1CCN(c2nc3c(S(=O)(=O)c4ccc(Br)cc4)nnn3c3ccsc23)CC1 -3.23%
Oc1ccc(Cl)cc1C1=Nc2ccccc2N=C(c2cccc(Br)c2)C1 -24.9%
CCC(Oc1ccccc1)C(=O)Nc1ccc2oc(-c3ccc(OC)cc3)nc2c1 (stereo not given) -1.91%
Cc1cccc(CSc2cn(CC(=O)N3CCCC3)c3ccccc23)c1 7.03%
CCc1ccc2oc(-c3cccc(NC(=O)c4ccc(N5CCC(C)CC5)c([N+](=O)[O-])c4)c3)nc2c1 7.02%
Cc1ccccc1CNC(=O)Cn1ncn2nc(-c3cccs3)cc2c1=O -10.4%
COc1cccc(NC(=O)Cn2cc(S(=O)(=O)N3CCCC3)c(S(=O)(=O)N3CCCC3)c2)c1 5.91%
CCOc1cccc(CC(=O)N2CCc3c([nH]c4ccccc34)C2c2ccc(F)cc2)c1OCC (stereo not given) -3.41%
CCOc1ccc(N(CC)S(=O)(=O)N2CCCC(C(=O)NCc3ccccc3Cl)C2)cc1 (stereo not given) -0.481%
Cc1ccc(CNC(=O)CSCc2ccc(F)cc2)cc1 3.96%
O=C(COc1ccc(S(=O)(=O)NC2CCCCC2)cc1)Nc1ccc(C(F)(F)F)cc1 -7.25%
CCc1ccccc1NC(=O)c1ccc2nc(CCc3ccccc3)oc2c1 7.44%
Cc1ccc(C(=O)COC(=O)C(CC(C)C)NC(=O)C2CCC(C)CC2)cc1 (stereo not given) -4.59%
CCOc1ccc(CC(=O)Nc2c(C(=O)c3ccc(C)cc3)oc3ccccc23)cc1OCC 7.42%
Cc1ccccc1-c1nc(CS(=O)(=O)CC(=O)N2CCN(c3ccccc3)CC2)c(C)o1 9.89%
CCOc1ccc(NS(=O)(=O)c2cc(Br)cc3c2N(C(=O)C2CC2)CC3)cc1 9.54%
CCCN(CCC)CCCNC(=O)C1CCCN(S(=O)(=O)c2cccc3nsnc23)C1 (stereo not given) 0.54%
Cn1c(=O)cc(OCCCC(=O)Nc2ccc(F)cc2)c2ccccc21 5.1%
Cc1ccc2cccc(NC(=O)c3ccc(-c4cccc([N+](=O)[O-])c4)o3)c2n1 9.17%
COc1cc(OC)c(NC(=O)NC(C)c2c(-n3cccc3)sc(C)c2C)cc1Cl (stereo not given) -7.96%
CCCCNC(=O)CSc1nc2nc(C)c(Cc3ccccc3C)c(C)n2n1 -2.04%
COc1cc(NS(=O)(=O)c2ccc(NC(=O)c3ccccc3C(=O)O)cc2)nc(OC)n1 2.15%
CC(=O)Nc1cccc(C(=O)NCc2ccc3c(c2)CCN3C(=O)c2ccccc2)c1 4.06%
CCC1CCc2nc3sc(C(=O)Nc4ccc(F)cc4F)c(N)c3cc2C1 (stereo not given) -9.09%
CCOC(=O)c1sc(NC(=O)/C=C/c2ccc(OCC)cc2)c(C(=O)OCC)c1C -22.8%
C[N+]1(C)[C@@H]2CC(OC(=O)[C@H](CO)c3ccccc3)C[C@H]1[C@H]1O[C@@H]12 (stereo not given in full) 9.95%
COc1ccc(C(=O)N2CC(=O)Nc3ccc(F)cc3C2c2ccc(F)cc2)c(OC)c1 (stereo not given) -6.97%
COc1ccc(/C=C/c2nc(C#N)c(NCCc3ccc(OC)c(OC)c3)o2)cc1OC 5.48%
CC(C)CC(=O)Nc1ccc(C(=O)OCc2cc(=O)n3nc(C(C)C)sc3n2)cc1 28.4%
COc1cccc(C(=O)Nc2cc(-c3ccccc3)no2)c1 1.03%
COc1ccc(-n2c(=O)c3ccc(C(=O)NCc4ccc(C)cc4)cc3n(CC(=O)Nc3ccc(F)cc3)c2=O)cc1 -2.75%
NCc1c[nH]c(=S)n1[C@H]1CCc2c(F)cc(F)cc2C1 31.8%
Cc1cc(C)cc(NS(=O)(=O)c2ccc3[nH]cc(C(=O)N4CCCC4)c(=O)c3c2)c1 1.29%
Cc1ccc(NC(=O)c2oc3ccccc3c2NC(=O)c2cc3ccccc3o2)cc1 6.19%
COC(=O)c1ccc(NC(=O)c2cc(S(=O)(=O)N3CCc4ccccc43)cn2C)cc1 10.6%
CC(C)CC(NS(=O)(=O)c1ccc2c(c1)oc(=O)n2C)C(=O)NCCc1ccc(Cl)cc1 (stereo not given) -0.659%
CCCCc1nnc(SCc2cc(=O)c3cc(C(=O)OCC)ccc3[nH]2)n1C -3.06%
CC1=C(C(N)=O)C(c2cccc(Br)c2)n2nc(SCc3ccccc3)nc2N1 (stereo not given) 19.3%
O=C(Nc1cccc(C(=O)N2CCN(c3ccc(Cl)cc3)CC2)c1)c1nsc2ccccc12 -2.13%
Cc1oc(-c2ccc(Cl)cc2)nc1CS(=O)CC(=O)NCc1ccc(Cl)cc1 (stereo not given) 15.2%
Cc1cc2nc(-c3cc(NC(=O)c4cc5ccccc5o4)ccc3Cl)oc2cc1C -15.5%
CCCNC(=O)C1CCN(S(=O)(=O)c2ccc3c(c2)CCCN3C(C)=O)CC1 -11.5%
Cc1cc(C)n2nc(SCC(=O)Nc3ccccc3)nc2n1 12.2%
Cc1ccc2nc(-c3ccc(O)cc3)c(Nc3ccc4c(c3)OCO4)n2c1 1.1%
CC(C)N(Cc1ccccc1)C(=O)CCS(=O)(=O)c1cc2c(cc1Cl)NC(=O)CO2 1.75%
COc1ccccc1N1CCN(C(CNC(=O)C(=O)NCCCN(C)C)c2cccnc2)CC1 (stereo not given) -2.18%
COc1ccc(N(CC(=O)NCCc2cccc(C)c2)S(=O)(=O)c2c(C)nn(C)c2C)cc1 22.9%
Cc1ccccc1OCc1nnc(SCc2cc(=O)c3ccccc3[nH]2)n1C 2.76%
COCc1cc(C)nc2sc3c(c12)NC(c1ccc(O)cc1)N(c1ccc(OC)cc1)C3=O (stereo not given) 5.95%
CCOc1ccc(-c2c(C)nn3c(C)c(C(=O)Nc4ccccc4C(=O)OC)cnc23)cc1OCC 1.75%
Cn1c(=O)c2c(ncn2CC(O)CO)n(C)c1=O (stereo not given) 1.87%
COC(=O)c1cccc(Nc2c(-c3ccc(O)c(OC)c3)nc3nc[nH]n23)c1 20.2%
Cc1cccc(NC(=O)CSc2nc3ccc(NC(=O)c4ccco4)cc3s2)c1 5.1%

outcome, inactive:
Cc1ccc(C)c(NC(=O)Cn2cc(C(=O)c3ccc(Cl)cc3)c(=O)c3ccc(C)nc32)c1
Cc1cccc(-c2nc3c4ccccc4nc(NCc4ccc(Cl)cc4)n3n2)c1
CC(=O)N1c2ccc(S(=O)(=O)N3CCCCCC3)cc2CC1C(=O)NCc1ccc(Cl)cc1 (stereo not given)
O=C(CC1C(=O)OCCN1Cc1ccccc1)Nc1cccc(C(F)(F)F)c1 (stereo not given)
CCOc1ccccc1CNC(=O)c1cc2cc(S(=O)(=O)N3CCCCC3)ccc2n1C
CC(=O)Nc1ccc(NC(=O)CCNS(=O)(=O)c2cccc3nsnc23)cc1
O=S(=O)(c1ccccc1)n1nc(-c2ccccc2)nc1NCc1ccc(Cl)cc1
Cc1cc(N2CCCCC2)nc2ccc(NC(=O)/C=C/c3ccccc3OC(C)C)cc12
O=C(Cc1cccc([N+](=O)[O-])c1)NCc1nc2cccnc2n1Cc1ccc(F)cc1
COc1cc(C2N=C(N)Nc3nc4ccccc4n32)ccc1OCCC(C)C (stereo not given)
CCCCNC(=O)CCn1c(=O)c2ccccc2n(Cc2ccccc2C#N)c1=O
CCC(=O)N1CCc2cc(Br)cc(S(=O)(=O)N3CCCC(C(=O)Nc4cccc(Cl)c4C)C3)c21 (stereo not given)
CCOc1ccc(CCNC(=O)Cn2nnc(-c3ccccc3)n2)cc1OCC
CCOC(=O)c1cc(C)n(CC2CCC(C(=O)Nc3ccc(Cl)cc3)CC2)c1C (stereo not given)
O=C(OCc1cc(=O)n2nc(C3CC3)sc2n1)c1ccc(F)cc1
CCOc1ccccc1NC(=O)Cn1cnc2onc(-c3ccc(F)cc3)c2c1=O
O=C(CSc1cn(CCNC(=O)c2c(F)cccc2F)c2ccccc12)Nc1ccc2c(c1)OCCO2
O=C(NCc1cccnc1)C1CCN(Cc2cc3ccccc3n2Cc2cccc(Cl)c2)CC1
CCc1ccc(NC(=O)CSc2nc3n[nH]c(C)c3c(=N)n2-c2ccccc2C)cc1
COc1cccc(C(=O)Nc2ccccc2OCc2cc(=O)n3cc(C)ccc3n2)c1
Cc1cc(NC(=O)C(C)C)cc(-c2nc3ncccc3o2)c1O
N#Cc1c(NC(=O)c2cc3nc(-c4ccc(Br)cc4)cc(C(F)(F)F)n3n2)sc2c1CCCC2
O=C1CC(c2ccccc2C(F)(F)F)c2c(c3ccccc3[nH]c2=O)O1 (stereo not given)
CCOC(=O)C1=C(CS(=O)(=O)c2c(C)cc(C)cc2C)NC(=O)NC1c1cccc(OC)c1 (stereo not given)
CCOc1ccc(NC(=O)C2Cc3ccccc3N2C(=O)c2ccccc2)cc1 (stereo not given)

— PubChem BioAssay AID1963576 (National Center for Advancing Translational Sciences (NCATS), 2024)
